Measured values: the supplement of paper PMC3724861
This is one part of the list.

Tested on: T1, Caupolican (Caup) homeodomain DNA-binding domain
T1 sequence: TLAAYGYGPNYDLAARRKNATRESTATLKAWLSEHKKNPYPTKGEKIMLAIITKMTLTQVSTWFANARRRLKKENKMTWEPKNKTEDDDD
Assay: PBM E-score (8-mer, recovered from the published 9-mer minima) (E-score (dimensionless, -0.5 to 0.5)); Drosophila protein; higher = stronger relative binding preference, active = 0.31 or more
Summary of the method: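 An enrichment score, with higher meaning stronger, expresses relative binding preference for each short DNA word. The protein used was Caup's homeodomain DNA-binding domain (residues 214-303), produced by in vitro transcription and translation and tested at 100 nM on custom-designed protein binding microarrays. The 8-mer values were recovered from published 9-mer scores, each equal to the lower of its two constituent 8-mer scores.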

Sequence | PBM E-score
GCGGAACA | inactive: 0.133
GGGCGACC | inactive: -0.298
CGGTGAAC | inactive: 0.0357
ACGTCACA | ≥ 0.089
CACGTCTG | inactive: 0.0121
CAGCTAGG | inactive: -0.046
CGATATAG | inactive: 0.0674
AAGACCGG | inactive: -0.0352
AGGGTTAG | inactive: 0.00071
CGGACTCC | inactive: -0.179
GTCGTCCA | inactive: 0.0521
ACATATGA | inactive: 0.284
CTTTCAAC | inactive: -0.013
AACCTTGC | inactive: -0.0448
CGATAAAA | inactive: 0.0273
ACCCTTAC | inactive: 0.00177
CCTCAGGC | inactive: -0.259
CCGGCCTA | inactive: -0.181
CTTCTATC | inactive: -0.076
AAGCCAGC | inactive: -0.0993
ACCACTCA | inactive: 0.0766
CCGCATTC | inactive: -0.0832
CCTCGCCC | inactive: -0.139
ATACTGTG | inactive: 0.122
ATTACTCG | inactive: 0.12

Sequence | PBM E-score
ATCATTAC | inactive: 0.154
ATAGTCGC | inactive: 0.0239
CAACCCTA | inactive: -0.00252
ATGTGAGA | inactive: 0.151
CGTGGCTC | inactive: -0.136
AGAACTTG | inactive: 0.105
AATGGCTG | inactive: -0.0521
GTAGCTTA | inactive: 0.0877
CATCCTCC | inactive: -0.00134
CGCGGCCA | inactive: -0.26
ACAAGAAC | active: 0.316
GAGGTAAC | inactive: 0.0556
TATCTACA | ≥ 0.29
CCGCCATC | inactive: -0.174
CTAATCAG | inactive: 0.0548
ACGGGGCT | inactive: -0.163
CAGCACAA | inactive: 0.0492
GTTGATTA | inactive: 0.212
AACCGCAC | inactive: -0.00966
CACCGAGA | inactive: -0.0703
CCAACTGC | inactive: -0.211
AAGCGGGA | inactive: -0.119
ACAGCGGA | inactive: 0.0482
AGATACAA | inactive: 0.296
GGGTCAGA | inactive: -0.221

Sequence | PBM E-score
CTCTACAA | inactive: 0.204
GAGCATGC | inactive: 0.0543
AGCATATA | inactive: 0.119
AGCGGCGG | inactive: -0.225
TTATATAA | inactive: 0.102
CATCATTA | inactive: 0.107
CACAATGG | inactive: 0.0289
ACATGAAG | inactive: 0.293
CCTTGATC | inactive: -0.0434
CGCCCCAG | inactive: -0.238
ATTTGCAC | inactive: 0.0191
CAGCTTAG | inactive: -0.096
ATTTTGTG | inactive: 0.0933
ACCCGCAT | inactive: 0.00073
GGCGTCAA | inactive: -0.034
GCCCGCCA | inactive: -0.248
CCACAGCG | inactive: -0.0529
CATAAACG | inactive: 0.121
ACACATCG | inactive: 0.156
ATAACGGC | inactive: -0.027
CTGTCGCA | inactive: -0.00227
ACCAGAAT | inactive: 0.0975
ATTGCTTA | inactive: 0.106
GAGTAAGC | inactive: -0.0782
ATACTCAC | inactive: 0.16

Sequence | PBM E-score
ATGAGGGG | ≥ -0.0196
CGTACATC | inactive: 0.263
CCGGATTA | inactive: 0.0118
AGCGGACC | inactive: -0.25
GGTGCTAC | inactive: -0.00473
GCACATGC | inactive: -0.0345
GATTAGAC | inactive: 0.117
TACATGCA | active: 0.371
AACGAATC | ≥ 0.0936
ATTGGTAC | inactive: 0.172
TACTCAAA | inactive: 0.0329
CCGTGTTC | active: ≥ 0.382
CCAGCCTA | inactive: -0.225
ACCGATCA | ≥ 0.049
ACTTTGCA | inactive: 0.0222
AATTGTTA | inactive: 0.188
CAATAAAC | inactive: 0.0372
AACCCCGC | inactive: -0.188
CAAAAACA | inactive: 0.206
AATGCTCG | inactive: 0.0913
ACCCAACT | inactive: -0.0182
ACGATATC | inactive: 0.133
GATTGAAC | inactive: 0.131
CCCTTCCA | inactive: -0.158
ACTGTTCC | inactive: 0.0346

Sequence | PBM E-score
TAGATGCA | ≥ 0.0765
ACATATCC | inactive: 0.264
AAGTTAAT | inactive: 0.106
AGCTTTGC | inactive: -0.178
AAATTGTC | inactive: 0.106
AAGTCCCG | inactive: -0.106
ACGAGAAA | inactive: 0.0689
TCTCGAAA | inactive: -0.0351
GGTGGAAC | inactive: -0.00718
CGGGCTAG | inactive: -0.19
AACAGCGG | inactive: 0.00789
ACGTTACA | inactive: 0.282
TGCGGAAA | inactive: -0.035
AGTCGCGG | inactive: -0.153
CACTAGAG | inactive: -0.115
CACAAAGC | inactive: 0.054
AATAGAAA | inactive: 0.107
CAATTGCA | inactive: 0.0985
ACGGACGT | inactive: -0.0548
GTCCGCAC | inactive: -0.0799
AGGCGTAG | inactive: -0.21
CCCGACCA | inactive: -0.0955
CGCTCGGC | inactive: -0.246
CAGTGGAG | inactive: -0.129
CGGCTTCA | inactive: -0.102

Sequence | PBM E-score
ATGTGCGC | inactive: -0.0217
CACTTGCG | inactive: -0.118
ACAAGCAG | inactive: 0.229
CAGTGAGG | inactive: -0.192
GGTTCGAA | inactive: -0.0268
CCTCTCAA | inactive: -0.0881
CCCCGCAA | inactive: -0.116
CCACCTTC | inactive: -0.0586
AAATCTCG | inactive: -0.0141
TCAGGGGA | inactive: -0.0695
CGGATTTC | inactive: -0.114
CAGGAGTA | inactive: 0.0358
GAACCCTA | inactive: -0.00413
AGAGTTTC | inactive: -0.112
TCTGTCCA | inactive: 0.12
AGTCCCAT | inactive: 0.026
CTTCATCC | inactive: -0.145
CGGCCTTA | inactive: -0.103
ACAAGTGC | inactive: 0.255
CTCGAGCA | inactive: 0.0323
AGAATCAT | ≥ 0.136
ATTGGTAA | inactive: 0.0534
GCGTGGCC | inactive: -0.262
AGCGATGC | inactive: -0.112
AAACCAGA | inactive: 0.123

Sequence | PBM E-score
ACGGGGAA | inactive: -0.0432
AACACCCT | inactive: 0.168
ACAGATGA | inactive: 0.139
ACGGAATG | inactive: 0.0231
ACACCTAA | inactive: 0.165
AGCGGTTC | inactive: -0.0923
CCAGTGTC | inactive: 0.122
GGACTGAA | ≥ 0.0183
AATCCGAT | inactive: 0.101
CAGAAACA | inactive: 0.165
GCAAACTA | inactive: 0.139
ATTCATCG | inactive: 0.0244
ACACTGAG | inactive: 0.0672
CGTGCCGC | inactive: -0.179
ACTTGAAG | inactive: 0.044
CAAAACGG | inactive: 0.016
AAACCGAC | inactive: 0.084
GCTCTTCC | inactive: -0.141
CCTAACCG | inactive: -0.141
ATCTCTGA | inactive: 0.0832
ACACATAC | inactive: 0.295
AAAGTGGT | inactive: 0.0391
ATCAAGCC | inactive: -0.00515
CTAAATGA | inactive: 0.0613
CCGCGGGC | inactive: -0.221

Sequence | PBM E-score
AAGCCCTC | inactive: -0.186
TCATAAAA | inactive: 0.128
CCACTTGA | inactive: -0.0675
ACAGTCTA | ≥ 0.0542
TAGCACTA | inactive: 0.026
GGTCAGTA | inactive: -0.0607
GGATGCCA | inactive: -0.0361
GGGAATAC | inactive: 0.118
GCTATTAC | inactive: 0.122
CGAGGGGA | inactive: -0.12
CGTTAATC | inactive: 0.0673
ATCCCCCG | ≥ -0.172
CTAAACAA | inactive: 0.187
ACCAACCT | inactive: -0.00644
GGTGATAA | inactive: 0.0536
CGGGGCTC | inactive: -0.266
AGGTAAAT | inactive: 0.153
AAATCCGG | inactive: -0.169
GGGAAACC | inactive: -0.0751
GAACCGAA | inactive: 0.0299
GTGAAAAC | inactive: -0.00518
AGCGAAGC | inactive: -0.124
CAAAAGCA | inactive: 0.05
AAGTTGAC | inactive: 0.0758
ACAGCGCT | inactive: 0.0486

Sequence | PBM E-score
GGAGCAAC | inactive: -0.0648
CATCACCC | inactive: -0.149
AACTTACG | inactive: 0.104
CAGGAAAC | inactive: 0.0685
CCGAGACC | inactive: -0.145
GTACTATA | inactive: 0.232
TTAATCAA | inactive: 0.198
AATACCGG | inactive: 0.0508
ATCGTATC | inactive: 0.0713
GCAAGAAA | inactive: -0.093
AACTGCCG | inactive: -0.127
CCGAGACG | inactive: -0.0572
CGCAAGAA | inactive: -0.136
CGCCGCTA | inactive: -0.196
AGTGCCCA | ≥ -0.0344
GATGGCAA | inactive: 0.0182
GGACGGAC | inactive: -0.0992
AGTCCTTG | inactive: 0.0158
GCAGGGCC | inactive: -0.272
AACGGTCA | inactive: -0.00424
CATGGGAC | inactive: 0.151
GCACAGTA | inactive: -0.0165
CGACTTTC | inactive: -0.153
CTCACTAA | inactive: 0.0552
CCGTCAGC | inactive: -0.212
